The campaign covered roughly 110,000 compounds. About 230 (0.21%) showed an effect of 50% or more. The list shows a part of the results.
Each compound was assayed against DPAP1 (Plasmodium falciparum, UniProt Q8IIJ9) (assay: primary screen, percent inhibition; read by cleavage of a fluorogenic dipeptide substrate; higher = more effect of the substance).
Parameters: species or system P. falciparum D10 trophozoite lysates; single well
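Further: 30 min substrate incubation versus DMSO and 10 µM JCP410 controls.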

Sequence of DPAP1 (Q8IIJ9 whole entry, looked up): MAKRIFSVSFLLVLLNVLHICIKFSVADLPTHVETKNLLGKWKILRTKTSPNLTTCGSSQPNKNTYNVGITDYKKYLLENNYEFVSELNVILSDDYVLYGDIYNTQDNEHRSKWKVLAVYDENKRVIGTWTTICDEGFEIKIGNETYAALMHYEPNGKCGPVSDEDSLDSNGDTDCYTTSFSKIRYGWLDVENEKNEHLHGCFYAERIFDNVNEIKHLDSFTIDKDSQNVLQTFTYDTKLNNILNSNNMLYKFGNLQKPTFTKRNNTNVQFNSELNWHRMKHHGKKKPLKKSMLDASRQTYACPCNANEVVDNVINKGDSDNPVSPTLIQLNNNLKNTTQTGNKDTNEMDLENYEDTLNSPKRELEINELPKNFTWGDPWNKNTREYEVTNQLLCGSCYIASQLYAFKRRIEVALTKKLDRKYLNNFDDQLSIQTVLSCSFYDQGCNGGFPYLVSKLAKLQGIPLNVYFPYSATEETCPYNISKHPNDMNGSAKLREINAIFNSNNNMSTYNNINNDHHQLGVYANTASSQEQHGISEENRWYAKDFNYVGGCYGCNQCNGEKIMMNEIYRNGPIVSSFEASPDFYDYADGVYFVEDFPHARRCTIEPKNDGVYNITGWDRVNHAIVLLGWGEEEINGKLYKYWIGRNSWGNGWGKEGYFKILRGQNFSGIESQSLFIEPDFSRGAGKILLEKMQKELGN

Row | Compound | % Inhibition @ 10 uM
1 | CCOC(=O)c1c(C)[nH]c(C)c1S(=O)(=O)NCCN1CCOCC1 | -5.69%
2 | Cc1cc(Br)ccc1OCC(=O)NC1CCCCC1 | -1.38%
3 | O=C1S/C(=C\c2cccc(Cl)c2)C(=O)N1Cc1ccccc1 | -0.769%
4 | COc1ccc(CNC(=O)c2ccc3nc(N4CCOCC4)sc3c2)cc1 | 4.83%
5 | COc1ccc(NC(=O)c2ccc(NC(=O)C3CCCCC3)cc2)cc1 | -2.84%
6 | c1ccc(OCCCCN2CCOCC2)cc1 | -0.546%
7 | Fc1ccc(C2=CCN(C3CCN(Cc4ccccc4)CC3)CC2)cc1 | -3.8%
8 | CSc1nc(Oc2ccc(Cl)cc2)cc(-n2ncc(C#N)c2N)n1 | 0.751%
9 | COc1ccc(OC)c(C2C(C#N)=C(N)Oc3[nH]nc(C)c32)c1 (centres unmarked) | -2.56%
10 | Cc1ccccc1Cn1c(=O)sc2ccccc21 | 5.09%
11 | C#CCSc1nc(-c2ccccc2)cc(C(F)(F)F)c1C#N | -10.2%
12 | Cc1cc2c(n1-c1ccc(C(=O)NCc3ccc4c(c3)OCO4)cc1)CCCC2 | 2.47%
13 | COc1ccccc1NC(=O)C1=C(C)N=C2CCCC(O)=C2C1c1cc(OC)c(OC)c(OC)c1 (centres unmarked) | -0.318%
14 | CN(C)/C=N/c1ccc2nn(-c3ccccc3)nc2c1 | 3%
15 | FC(F)Oc1ccc(-c2nn[nH]n2)cc1 | 1.76%
16 | Cc1ccc2ccc(C3C(=O)c4ccccc4C3=O)nc2c1 | -2.12%
17 | O=[N+]([O-])c1cccc(C2NCCc3[nH]cnc32)c1 (centres unmarked) | -0.902%
18 | Cc1ccc(NC(=O)CN(c2ccccc2F)S(C)(=O)=O)c(C)c1 | 0.324%
19 | Cc1nn(C(F)F)c(C)c1C(=O)Nc1ccn(Cc2ccccc2)n1 | -5.81%
20 | O=S(=O)(Nc1cc(Cl)c(O)c(Cl)c1)c1ccc2ccccc2c1 | -4.02%
21 | Cc1ccc(NCN2C(=O)C3CCC(C)CC3C2=O)cc1Cl (centres unmarked) | 2.19%
22 | O=S(=O)(c1ccc(Cl)s1)N1CCN(c2cccc(Cl)c2)CC1 | -0.25%
23 | Cc1nnc(N2C(=O)C(O)=C(C(=O)c3cccs3)C2c2cccc(Oc3ccccc3)c2)s1 (centres unmarked) | 42.3%
24 | Cc1ccc(C2=NS(=O)(=O)N(C)C(C(=O)N3CCC4(CC3)OCCO4)=C2)cc1 | -6.83%
25 | O=C(CSc1nc2cccnc2[nH]1)N1CCNC1=O | 3.24%
26 | CSc1ccc(/C=c2\sc3nc(=O)c(Cc4ccc(C)cc4)nn3c2=O)cc1 | -0.499%

Row | Compound | % Inhibition @ 10 uM
27 | CN(CC(=O)NCc1ccc2c(c1)OCO2)S(=O)(=O)c1ccc2[nH]c(-c3ccccc3)nc2c1 | -3.77%
28 | COc1cccc2cc(S(=O)(=O)c3ccc(Br)cc3)c(=O)oc12 | -3.1%
29 | O=C1CC(c2ccco2)CC(=O)C1=CNCCN1CCNCC1 (centres unmarked) | -0.864%
30 | Cc1ccc2cc(C)c(Nc3ccc(C(=O)O)cc3)nc2c1 | -2.35%
31 | CS(=O)(=O)c1ncc(Cl)c(C(=O)Nc2sc3c(c2C(=O)NCc2ccco2)CCCC3)n1 | 0.569%
32 | C=CCNC(=O)C1CCCN(c2cnccn2)C1 (centres unmarked) | -4.67%
33 | Cc1c2cnn(CC(=O)N3CCc4ccccc4C3)c(=O)c2c(C)n1Cc1ccccc1F | -5.81%
34 | Nc1ccc(S(=O)(=O)N2CC(=O)NC(=O)C2)cc1 | 1.8%
35 | CN(Cc1ccccc1)S(=O)(=O)c1ccc2ncc(C(=O)NCc3cccs3)c(O)c2c1 | -7.57%
36 | CCOC1=CC2=C(CC(C)(C)CC2=O)OC1N(C)C (centres unmarked) | 0.937%
37 | CN(Cc1ccccc1)S(=O)(=O)c1ccc(NC(=O)c2ccccc2Br)cc1 | 28.8%
38 | CCN(CC)CCNC(=O)c1ccc(CS(=O)(=O)c2ccccc2C)o1 | 5.34%
39 | COc1ccc(CN2CCN(Cc3ccccc3Br)CC2)c(OC)c1 | -8.37%
40 | Cc1ccc(-c2nn(C)c(=O)c3ccccc23)cc1S(=O)(=O)N1CCC(Cc2ccccc2)CC1 | 5.3%
41 | CCN1CCCC1CNC(=O)Cn1cnc2c(nc3n2CCCCC3)c1=O (centres unmarked) | 3.95%
42 | O=C(OCc1ccco1)c1sc2ccccc2c1Cl | -0.189%
43 | COc1cc(CNC2C3CC4CC(C3)CC2C4)ccc1OCC(=O)NC(C)(C)C (centres unmarked) | 1.64%
44 | NC(CCCCCC(=O)O)C1CCCCCC1 (centres unmarked) | -0.969%
45 | O=C1C2C3C=CC(C3)C2C(=O)N1c1ccc2ccccc2n1 (centres unmarked) | -3.28%
46 | NC1=NC(=O)CC(c2ccc(F)cc2)N1 (centres unmarked) | 0.351%
47 | O=C(CSc1ccc2nnc(CCNS(=O)(=O)c3ccccc3)n2n1)N1CCCC1 | 2.22%
48 | O=C(CCS(=O)(=O)c1ccc2ccccc2c1)N1CCCC1 | -4.91%
49 | Cc1ccc(NCC(O)COc2ccccc2)cc1C (centres unmarked) | -0.128%
50 | Cc1cccc(OCc2nn3c(Cc4ccccc4)nnc3s2)c1 | 3.38%
51 | Clc1ccc(-c2nnc3ccccn23)cc1 | 1.32%
52 | Cc1ccc2oc(O)cc(=O)c2c1 | -3.44%

Row | Compound | % Inhibition @ 10 uM
53 | Oc1ccnc2c1ccc1c(O)ccnc12 | 2.55%
54 | COc1ccccc1/C=c1\sc2nc(-c3ccc(OC)c(OC)c3)nn2c1=O | 19.9%
55 | COc1ccc(/C=C(/NC(=O)c2ccc(C)cc2)C(=O)N2CCCCCC2)cc1OC | -3.9%
56 | CCCCN(CC)CCCNC(=O)c1ccc(CS(=O)(=O)c2c(Cl)cccc2Cl)o1 | -4.71%
57 | Cc1cccc(NC2=NC(=O)/C(=C\c3ccc(O)cc3)S2)c1 | -1.98%
58 | COc1cc(C)c(C)cc1S(=O)(=O)NC1CC(C)(C)NC(C)(C)C1 | 0.24%
59 | Cn1c(=O)c2c(nc(N3CCN(c4ccc([N+](=O)[O-])cc4)CC3)n2C)n(C)c1=O | 4.22%
60 | CC1CCCCC1NC(=O)Cn1nc(-c2ccc(Cl)cc2)ccc1=O (centres unmarked) | 3.24%
61 | COc1ccc(Nc2ccccc2Cl)c(C(=O)O)c1 | 2.49%
62 | Cc1cccc(C(=O)N(C)Cc2ccccc2)c1 | -6.86%
63 | Cc1ccc(NC(=O)Nc2ccc(Cl)cc2)cc1Br | -0.622%
64 | Cc1n[nH]c(C)c1CCCCCCOc1ccc(Cl)cc1 | 1.35%
65 | Cc1ccc(OCCCC(=O)N2CCOCC2)cc1 | -7.15%
66 | CCC(=O)N1C(C(=O)NCCC2=CCCCC2)CSC12CCN(C)CC2 (centres unmarked) | -6.36%
67 | C#CC(C)(C)NC(=O)CN(c1ccc(OC)cc1)S(=O)(=O)c1ccccc1 | 4.32%
68 | CNC(=O)c1c(NC(=O)c2ccc(Cl)cc2)sc2c1CCC(C(C)(C)C)C2 (centres unmarked) | -3.21%
69 | CC(C)C(C(=O)O)N1C(=O)C2C3CCC(C3)C2C1=O (centres unmarked) | 4.08%
70 | COc1cccc(OCC(O)CN2CCN(Cc3ccccc3)CC2)c1 (centres unmarked) | -7%
71 | CC(=O)c1nc2ccccc2n1Cc1ccccc1 | -1.99%
72 | CC1=C(C(=O)Nc2ccccc2C)C(c2ccc(N(C)C)cc2)NC(=O)N1 (centres unmarked) | -0.564%
73 | Cc1ccc(C(=O)Nc2nc(-c3cccc4ccccc34)cs2)o1 | -2.44%
74 | Cn1c(=O)c2c(n3cnnc13)-c1ccccc1CC21CCCCC1 | -3.77%
75 | Cc1cc(C)c2c(n1)SCC(=O)N2CCCC(=O)NC(C)c1ccccc1 (centres unmarked) | -9.91%
76 | Cc1ccc(-n2ncc3c(N4CCc5ccccc5C4)ncnc32)cc1 | 3.36%
77 | COc1ccc(N2C(=O)CC(N3CCN(C)CC3)C2=O)cc1 (centres unmarked) | 1.08%
78 | CS(=O)(=O)C1=NSC2=NC(=O)/C(=C\c3cn(CCOc4ccccc4)c4ccccc34)C(=N)N21 | 1.85%

Row | Compound | % Inhibition @ 10 uM
79 | O=C(Nc1nc2ccc(Cl)cc2s1)c1cccnc1 | 2.69%
80 | S=C1NC2(CCN(Cc3ccccc3)CC2)N=C1c1ccccc1 | 5.46%
81 | Cc1ccc2c(c1)C(c1ccccc1)NCC(=O)N2 (centres unmarked) | -0.267%
82 | O=C(Nc1ccc(F)cc1)Nc1ccc(Cl)cc1 | -0.0369%
83 | O=S(=O)(NC1c2ccccc2Oc2ccccc21)c1ccc2ccccc2c1 | 10.7%
84 | COc1ccc(C(=O)N2CCCCCC2)cc1S(=O)(=O)N1CCOCC1 | 0.605%
85 | CC1CCN(S(=O)(=O)c2ccc(NC(=O)c3ccccc3F)cc2)CC1 | -4.86%
86 | Cc1ccc(CN(Cc2ccco2)C(=O)c2cc3ccccc3oc2=O)cc1 | 4.47%
87 | COc1cccc(-c2nc3cc(Br)cnc3[nH]2)c1OC | 0.962%
88 | Cc1ccc(S(=O)(=O)NC2(C(F)(F)F)C(=O)Nc3c2c(=O)[nH]c(=O)n3Cc2ccco2)cc1 (centres unmarked) | 6.64%
89 | COc1ccc(/C=C/C(=O)NC(=S)Nc2ccc(S(=O)(=O)Nc3nccs3)cc2)cc1OC | -5.38%
90 | COc1cc(Cl)ccc1S(=O)(=O)N1CCN(S(=O)(=O)c2ccc(Cl)cc2OC)CC1 | -0.178%
91 | CCN(CC)CCN(CC)Cc1ccc(Cl)cc1 | -2.34%
92 | Cc1nc2n(C)c3ccccc3n2c1C(=O)OCCN1CCCCC1 | -1.66%
93 | Clc1ccc(-c2nnc(SCc3ccccc3)o2)c(Cl)c1 | -2.12%
94 | COc1cc(OC)cc(C(=O)Nc2ccc(N3CCN(C(=O)c4ccccc4)CC3)cc2)c1 | 2.64%
95 | COc1ccccc1-c1nnc(SCC(=O)N2CCOCC2)o1 | 0.738%
96 | Cc1nc2ccc(S(=O)(=O)NC(CC(C)C)C(=O)NCCc3ccc(Cl)cc3)cc2s1 (centres unmarked) | -1.3%
97 | O=c1cc2nc(-c3ccccc3)nc(SCc3ccccc3)n2[nH]1 | -8.93%
98 | Fc1ccc(CNCc2cccn2-c2nnc(N3CCN(C4CCCCC4)CC3)s2)cc1 | -3.84%
99 | CC(=O)Nc1ccc(NC(=O)COc2ccc(-c3ccccc3)cc2)cc1 | 6.15%
100 | N#Cc1c(NC(=O)C2CCCO2)sc2c1CCCCC2 (centres unmarked) | 5.05%
101 | N#CC1=C(N)N2C(=O)c3ccccc3SC2=C(C#N)C1c1c(F)cccc1Cl (centres unmarked) | 3.37%
